Publication PMC4336329 (PLoS ONE, 2015)
In all, about 310,000 compounds went through this assay and about 14,000 (4.5%) showed an effect of 50% or more. Effects have a minus sign here. The list shows a part of the results.

Target: human ether-à-go-go-related gene (hERG) potassium channel (human, UniProt Q12809)
Assay: primary screen, population patch clamp on CHO cells stably expressing hERG
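Further: peak tail current of the secondary pulse compared with the same well before compound.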

Sequence of human ether-à-go-go-related gene (hERG) potassium channel (Q12809 whole entry, looked up): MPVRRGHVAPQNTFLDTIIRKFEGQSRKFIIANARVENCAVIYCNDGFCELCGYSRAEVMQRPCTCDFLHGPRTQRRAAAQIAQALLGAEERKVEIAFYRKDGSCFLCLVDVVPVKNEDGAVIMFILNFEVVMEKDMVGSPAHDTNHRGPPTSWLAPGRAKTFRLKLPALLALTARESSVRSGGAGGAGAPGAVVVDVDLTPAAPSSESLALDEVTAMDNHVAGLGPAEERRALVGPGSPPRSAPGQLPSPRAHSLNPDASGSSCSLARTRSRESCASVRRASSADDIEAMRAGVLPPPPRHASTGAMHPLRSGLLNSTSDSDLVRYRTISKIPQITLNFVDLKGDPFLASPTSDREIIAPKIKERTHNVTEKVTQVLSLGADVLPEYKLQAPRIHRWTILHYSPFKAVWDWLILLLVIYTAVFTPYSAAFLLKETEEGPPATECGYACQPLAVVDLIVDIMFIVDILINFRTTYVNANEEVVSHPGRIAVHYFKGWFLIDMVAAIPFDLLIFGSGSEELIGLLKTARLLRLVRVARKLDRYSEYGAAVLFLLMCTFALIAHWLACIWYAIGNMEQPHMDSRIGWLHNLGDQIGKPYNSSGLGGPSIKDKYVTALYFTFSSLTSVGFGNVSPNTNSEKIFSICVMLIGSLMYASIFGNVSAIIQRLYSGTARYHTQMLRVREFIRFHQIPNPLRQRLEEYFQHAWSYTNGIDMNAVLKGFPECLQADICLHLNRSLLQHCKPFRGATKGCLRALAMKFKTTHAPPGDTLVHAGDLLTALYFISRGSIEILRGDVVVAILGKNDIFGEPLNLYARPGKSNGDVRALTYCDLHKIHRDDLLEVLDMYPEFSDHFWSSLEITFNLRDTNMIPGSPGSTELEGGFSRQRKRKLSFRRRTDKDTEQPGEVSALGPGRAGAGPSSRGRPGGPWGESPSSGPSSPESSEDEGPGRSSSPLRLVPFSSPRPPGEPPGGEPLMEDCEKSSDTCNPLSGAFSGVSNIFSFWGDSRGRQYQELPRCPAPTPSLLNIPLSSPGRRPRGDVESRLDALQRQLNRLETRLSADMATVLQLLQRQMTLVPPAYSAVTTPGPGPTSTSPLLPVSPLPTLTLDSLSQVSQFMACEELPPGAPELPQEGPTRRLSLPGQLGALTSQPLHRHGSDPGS

Structure (SMILES)	hERG current change (%, negative = inhibition) at 10uM
COC(=O)c1cc(OC)c(OC)cc1NC(=O)Nc1cccc(C(C)=O)c1	32%
COc1ccc(C(=O)/C=C/Nc2cc(C)on2)c(OC)c1	-6.33%
Fc1ccc(-c2ccnc3nc(N4CCOCC4)nn23)cc1	-3.58%
O=C(NCC1CCCO1)C(Cc1ccccc1)N1C(=O)C2C3C=CC(C4CC34)C2C1=O (stereo not drawn)	-12.7%
COc1cc(OC)c2ccc(=O)oc2c1C(CC(=O)N1CCCC(C)C1)c1ccc2c(c1)OCO2 (stereo not drawn)	4.24%
Cc1nc2ccccc2c(=O)n1CCCN1CCOCC1	18.3%
CCOC(=O)c1c(C(=O)OCC)c(C)n(N2C(=O)CSC2=S)c1C	16.2%
Cc1cc(N2CCCC2)ccc1/C=C1\NC(=S)N(C)C1=O	-19.8%
O=C(COC(=O)c1ccc2[nH]c3c(c2c1)CCCC3)NC1CCS(=O)(=O)C1 (stereo not drawn)	-8.48%
O=C1CC(SC(=NCc2ccc3c(c2)OCO3)Nc2ccccc2)C(=O)N1 (stereo not drawn)	4.04%
N#CC[N+]1(CCCNP2(=O)C=C(c3ccccc3)OC(c3ccccc3)=C2)CCOCC1.[Cl-]	-63.5%
COC(=O)c1ccc(-n2c(C)nc3ccccc3c2=O)cc1	6.39%
CC(=O)Nc1ccc(S(=O)(=O)Oc2ccc(/C=N/NC(=O)c3ccc(Cl)cc3)cc2)cc1	16.6%
COc1ccc(C2C(C(=O)N3CCCC3)c3cc(OC)c(OC)cc3C(=O)N2C)cc1OC (stereo not drawn)	0.414%
c1ccc(Cc2nnc3sc(-c4ccncc4)nn23)cc1	-27.4%
COc1ccc(C2=NN(C(=O)c3cccc([N+](=O)[O-])c3)C(c3cccc([N+](=O)[O-])c3)C2)cc1 (stereo not drawn)	-15.7%
CCCn1cc(S(=O)(=O)CC(=O)Nc2ccc(OCC)cc2)c2ccccc21	-13.6%
Cn1nnc2cc(C(=O)N3CCSCC3)ccc21	9.56%
CN(C)c1ccc(N=Cc2nc(-c3ccccc3)oc2OC(=O)c2cccc(Br)c2)cc1	-3.69%
O=C(NC(=S)Nc1cccc(-c2ccc(CO)o2)c1)c1cccs1	23.7%
O=C1CCN(S(=O)(=O)c2ccccc2)C2CCCCC12 (stereo not drawn)	-7.54%
Cc1ccc(C)c(CSc2nnc(-c3cccs3)n2Cc2ccco2)c1	-24.6%

Structure (SMILES)	hERG current change (%, negative = inhibition) at 10uM
Cc1oc2cc(O)ccc2c(=O)c1Oc1ccc(F)cc1	14.2%
CCn1cc(Cl)c(C(=O)Nc2cccc(C(F)(F)F)c2)n1	-6.89%
Cc1cccc(Oc2sc(C(=O)c3ccccc3)c(N)c2C#N)c1	-8.01%
Cc1cc(C(=O)O)c(CCCN)s1.Cl	14.7%
COc1ccc(CCNC(=S)Nc2ccc(C(C)C)cc2)cc1	4.14%
COc1cccc(-c2nnc3sc(-c4cccs4)nn23)c1	12.3%
O=C(COc1ccc(-c2nnco2)cc1)N1CCN(S(=O)(=O)c2ccc3ccccc3c2)CC1	0.322%
CCc1ccc(N(C)S(=O)(=O)c2ccc3[nH]cc(C(=O)NCCN4CCOCC4)c(=O)c3c2)cc1	-8.18%
O=C(CN1CCCC1=O)NC1(C(F)(F)F)NC(=O)N(Cc2ccccc2)C1=O (stereo not drawn)	13.7%
CC(C)n1c(S(=O)(=O)O)nc2ccccc21	22.6%
NS(=O)(=O)c1cccc(NC(=O)COC(=O)CCCc2c[nH]c3ccccc23)c1	16.4%
Cl.N=c1n(CCN2CCOCC2)c2ccccc2n1CC(O)COc1ccccc1 (stereo not drawn)	-39.3%
C#CCNC(=O)C1=C[C@@H](C2CCCCC2)C[C@@H](OCCCCO)O1	5.41%
CC(=O)Nc1cccc2c1C(=O)N(c1ccc(C)cc1)C2=O	14.3%
COC(=O)c1cc(Br)c(=O)n(Cc2ccc(OC)c(OC)c2)c1	16.6%
CCc1ccc(N2CN(Cc3ccco3)CNC2=S)cc1	-0.47%
COc1ccc2[nH]cc(C(=O)CN(C)C)c2c1	9.06%
O=C(NNC(=O)c1cc2cc(OC(F)(F)F)ccc2[nH]1)c1ccc(Cl)cc1	3.34%
c1cnc2ccc(C(c3nnnn3C3CCCC3)N3CCN(c4nc5ccccc5s4)CC3)cc2c1 (stereo not drawn)	-37%
CC1CC(C)(C)NC(=S)N1CCC(=O)Nc1ccc2c(c1)OCCO2 (stereo not drawn)	18.3%
O=C(Nc1ccc(F)cc1)OCCOc1ccc([N+](=O)[O-])cc1	-14.9%
Cc1cc(C)n(-c2nc3ccccc3c(=O)n2OCc2ccc(Cl)cc2)n1	0.333%

Structure (SMILES)	hERG current change (%, negative = inhibition) at 10uM
COc1ccc([N+](=O)[O-])cc1N(CC(=O)Nc1ccccc1C(=O)N1CCOCC1)S(C)(=O)=O	-19.4%
O=C(c1ccccc1)c1c(-c2ccccc2)[nH]n(-c2ccccc2)c(=O)c1=O	13%
CC(=O)NC(CCS(C)(=O)=O)C(=O)Nc1cc(Cl)ccc1Cl (stereo not drawn)	-2.89%
O=C(CCl)N(c1ccccc1)C1CCCCC1	10.4%
COc1ccc(CCNC(=O)Cn2cnc3c(cnn3C(C)(C)C)c2=O)cc1OC	-0.127%
CN(CCO)S(=O)(=O)c1ccc2c(c1)C(=NO)c1cc(S(=O)(=O)N(C)CCO)ccc1-2	3.14%
O=c1c(F)cn(C2CCCO2)c(=O)n1Cc1c(F)cccc1Cl (stereo not drawn)	-6.4%
COc1cccc(C(=O)Oc2ccc3ccc(=O)oc3c2)c1	42.3%
CC(C)CNC(=O)CC(NCC(C)C)C(=O)O (stereo not drawn)	7.15%
COc1ccc(OC)c(-c2cc(C3CCN(c4cc(Cl)nc(N)n4)CC3)[nH]n2)c1	-6.76%
C/C(Cc1ccccc1)=N\NC(=O)CNC(=O)c1cccc(Br)c1	-7.73%
O=C(Nc1ncccc1Cl)C(Sc1ccccc1)c1ccccc1 (stereo not drawn)	8.58%
Cc1ccc(/C=C(\NC(=O)c2ccccc2)C(=O)NC(Cc2ccccc2)C(=O)O)cc1 (stereo not drawn)	16.4%
Cn1c(=O)c2c(nc(SCC(=O)N3CCCCCC3)n2C)n(C)c1=O	-0.75%
O=C(NC(=S)Nc1ccc(N2CCOCC2)cc1)c1cncc(Br)c1	19.5%
CC(C)[C@H](NC(=O)c1ccco1)C(=O)N(C)Cc1c(F)cccc1Cl	-32.3%
CCN1C(=C2C(=O)c3ccccc3C2=O)C=Cc2ccccc21	1.88%
C=CCOc1ccc(C(c2c(C(=O)O)[nH]c3ccccc23)c2c(C(=O)O)[nH]c3ccccc23)cc1	6.74%
O=C(CCC(NC(=O)OCc1ccccc1)C(=O)O)OCc1ccccc1 (stereo not drawn)	24.3%
CCC(C)[C@H](NC(=O)N1CC(=O)Nc2ccccc21)C(=O)Nc1nccs1 (stereo partly drawn)	1.18%
COc1cc(C(=O)Nc2ccc3c(c2)N(C(=O)CN2CCN(C)CC2)c2ccccc2CC3)cc(OC)c1OC.Cl	7.61%
O=C(Oc1ccc(Cl)c2cccnc12)c1cccnc1	8.73%

Structure (SMILES)	hERG current change (%, negative = inhibition) at 10uM
CCOC(=O)NC(NC(=S)Nc1ccc(OCC)cc1)C(Cl)(Cl)Cl (stereo not drawn)	2.25%
COc1ccc(OCC(=O)N2CC3(C)CC2CC(C)(C)C3)cc1 (stereo not drawn)	-21.2%
O=S(=O)(NCc1ccccn1)C(F)(F)F	7.84%
COc1ccc(S(=O)(=O)Oc2ccc3c(c2)O/C(=C\c2cccnc2)C3=O)cc1	-3.29%
CCOC(=O)c1cc(-c2ccc(N)cc2)sc1N	-7.2%
Cc1c(Br)c([N+](=O)[O-])nn1CC(=O)NC1CCCCCC1	13.3%
CCCCOc1ccc(CONS(=O)(=O)c2ccc(NC(C)=O)cc2)cc1Cl	7.43%
CC(=O)Nc1ccc(OCC(O)CN2C(C)CCCC2C)cc1.Cl (stereo not drawn)	19.1%
Cc1cccc(CN2CCN(Cc3ccc(-n4cccn4)cc3)CC2CCO)n1 (stereo not drawn)	-30.2%
COc1cc([N+](=O)[O-])ccc1NC(=O)NNC(=O)CCc1ccccc1	-5.13%
CCN(CC)CCN(C)C(=O)c1ccc(OC2CCN(C(=O)C3CC3)CC2)cc1	-0.764%
COc1ccc(C2NC(=O)C(C)S2)cc1 (stereo not drawn)	13.8%
CCOc1ccc(C(=O)Nc2cc(C)on2)cc1OCC	10%
CCOC1=C/C(=C/c2c(N)n3nc(CC(=O)N4CCCC4)sc3nc2=O)C=CC1=O	17.7%
Cc1ccc(C=Nc2ccccc2C(N)=O)o1	10.6%
CN1C(=O)/C(=C/c2cccc(Cl)c2)Sc2ccc(C(=O)N3CCOCC3)cc21	-50.3%
Cc1ccc(C)c(NC(=O)CSc2nnc(-c3ccncc3)n2N)c1	5.07%
CC(C)C(c1nnnn1Cc1ccc2c(c1)OCO2)N1CCN(C)CC1.Cl (stereo not drawn)	-0.377%
Cc1cccc(NC(=O)CCCC(=O)OC(C)C(=O)c2ccccc2)c1 (stereo not drawn)	-6.58%
Cc1ccccc1C1=N/C(=C/c2cccnc2)C(=O)O1	11.4%
CN(C)S(=O)(=O)c1ccc(NC(=O)CSc2nc3ccccc3n2-c2ccccc2)cc1	24.2%
